Test results published in publication PMC11995724, “Antibiotic target discovery by integrated phenotypic and activity-based profiling of electrophilic fragments” (Cell chemical biology, 2025).
Among all 3,200 compounds or so, about 75 (2%) showed an effect of 50% or more. The list shows a part of the results.

tested on: T1, S. aureus MSSA476; parameters: species or system S. aureus MSSA476 (TSB) or V. cholerae SAD30 (LB); 384-well bacterial growth screen at 25 uM, OD600 relative to DMSO control; settings: relative growth, OD600, TSB; 25 µM; inhibitor
T1 construct: MSSA476

Structure (SMILES)	% of control remaining [%]
C=CC(=O)N1CSCC1C(=O)N(C)C (centres unmarked) [1-G03, N,N-dimethyl-3-(prop-2-enoyl)-1,3-thiazolidine-4-carboxamide]	84.044
CC(Cl)C(=O)Nc1cccc([N+](=O)[O-])c1 (centres unmarked) [6-E08, 2-chloro-N-(3-nitrophenyl)propanamide]	83.6585
COc1ccc(OC)c(N2C(=O)C=CC2=O)c1 [10-N15, 1-(2,5-dimethoxyphenyl)-2,5-dihydro-1H-pyrrole-2,5-dione]	125
Cc1noc(C)c1CN(C(=O)CCl)C1CC1 [7-B05, 2-chloro-N-cyclopropyl-N-[(3,5-dimethyl-1,2-oxazol-4-yl)methyl]acetamide]	93.2496
C=CC(=O)N(C)CC(=O)Nc1ccc(N2CCC(O)CC2)cc1 [3-P06, N-({[4-(4-hydroxypiperidin-1-yl)phenyl]carbamoyl}methyl)-N-methylprop-2-enamide]	86.3735
O=C(CCl)NC(Cc1ccccc1)c1ccccc1 (centres unmarked) [4-L11, 2-chloro-N-(1,2-diphenylethyl)acetamide]	117.77
CN1C(=O)c2ccccc2C1CNC(=O)CCl (centres unmarked) [7-B10, 2-chloro-N-[(2-methyl-3-oxo-2,3-dihydro-1H-isoindol-1-yl)methyl]acetamide]	93.8776
Cc1cccc(C=C(C#N)C(=O)Nc2ccc(C(=O)O)cc2)c1 [8-M21, 4-[2-cyano-3-(3-methylphenyl)prop-2-enamido]benzoic acid]	95.6017
C=CC(=O)NCc1ccc(C(=O)N2CCC(NC(C)=O)CC2)cc1 [2-A12, N-{[4-(4-acetamidopiperidine-1-carbonyl)phenyl]methyl}prop-2-enamide]	114.534
C=CC(=O)NCc1cnc2ccsc2c1 [2-D11, N-({thieno[3,2-b]pyridin-6-yl}methyl)prop-2-enamide]	105.831
Cc1ccc(NC(=O)C(C)Cl)cc1 (centres unmarked) [4-J15, 2-chloro-N-(4-methylphenyl)propanamide]	78.5136
CC(Cl)C(=O)N1CCCc2c1ccc1c2ncn1C (centres unmarked) [6-B19, 2-chloro-1-{3-methyl-3H,6H,7H,8H,9H-imidazo[4,5-f]quinolin-6-yl}propan-1-one]	75.4634
CC(Cl)C(=O)N1CCc2oc(-c3ccccc3)cc2C1 (centres unmarked) [6-B21, 2-chloro-1-{2-phenyl-4H,5H,6H,7H-furo[3,2-c]pyridin-5-yl}propan-1-one]	78.1951
CC(Cl)C(=O)NC1CC(=O)N(Cc2ccccc2C(F)(F)F)C1 (centres unmarked) [6-J19, 2-chloro-N-(5-oxo-1-{[2-(trifluoromethyl)phenyl]methyl}pyrrolidin-3-yl)propanamide]	108.585
Cc1c(Cl)cccc1NC(=O)C(C)Cl (centres unmarked) [6-I10, 2-chloro-N-(3-chloro-2-methylphenyl)propanamide]	94.5854
CC(Cl)C(=O)N1CCN(C(=O)c2cccc(OC(F)F)c2)CC1 (centres unmarked) [5-F17, 2-chloro-1-{4-[3-(difluoromethoxy)benzoyl]piperazin-1-yl}propan-1-one]	115.847
N#CC(=Cc1c[nH]c2ccccc12)C(=O)Nc1cccc2ncccc12 [9-N08, 2-cyano-3-(1H-indol-3-yl)-N-(quinolin-5-yl)prop-2-enamide]	101.873
CC(Cl)C(=O)Nc1c(C(C)C)cccc1C(C)C (centres unmarked) [4-B15, N-[2,6-bis(propan-2-yl)phenyl]-2-chloropropanamide]	128.442
COc1cc(CN(C(=O)CCl)C2CCCOC2)ccc1C (centres unmarked) [5-E12, 2-chloro-N-[(3-methoxy-4-methylphenyl)methyl]-N-(oxan-3-yl)acetamide]	147.541
N#CC(=Cc1cnn(-c2ccc(Cl)cc2)c1)C(=O)NC1CCCC1 [8-M10, 3-[1-(4-chlorophenyl)-1H-pyrazol-4-yl]-2-cyano-N-cyclopentylprop-2-enamide]	103.568
C=CC(=O)NC(CO)c1cccc(OC)c1 (centres unmarked) [2-E22, N-[2-hydroxy-1-(3-methoxyphenyl)ethyl]prop-2-enamide]	95.7354
C=CC(=O)Nc1ccc(C(C)CC(N)=O)cc1 (centres unmarked) [1-I16, 3-[4-(prop-2-enamido)phenyl]butanamide]	123.429
C=CC(=O)N1CCC(c2ccc(OC)c(F)c2)C1 (centres unmarked) [3-K19, 1-[3-(3-fluoro-4-methoxyphenyl)pyrrolidin-1-yl]prop-2-en-1-one]	111.798
Cc1csc(COC2CCN(C(=O)CCl)C2)n1 (centres unmarked) [5-M08, 2-chloro-1-{3-[(4-methyl-1,3-thiazol-2-yl)methoxy]pyrrolidin-1-yl}ethan-1-one]	97.2678

Structure (SMILES)	% of control remaining [%]
C=CC(=O)N1CCCC1Cn1c(C)nc2ccccc21 (centres unmarked) [1-J05, 1-{2-[(2-methyl-1H-1,3-benzodiazol-1-yl)methyl]pyrrolidin-1-yl}prop-2-en-1-one]	123.429
Cl.O=C(CCl)NC1c2ccccc2CCC1n1ccnc1 (centres unmarked) [7-N14, 2-chloro-N-[2-(1H-imidazol-1-yl)-1,2,3,4-tetrahydronaphthalen-1-yl]acetamide hydrochloride]	71.8995
Cc1oc(C(N)=O)cc1C(=O)CCl [10-M05, 4-(2-chloroacetyl)-5-methylfuran-2-carboxamide]	125.938
N#CC(=Cc1ccc(O)cc1)C(=O)NCc1ccco1 [9-N10, 2-cyano-N-[(furan-2-yl)methyl]-3-(4-hydroxyphenyl)prop-2-enamide]	90.1873
CC(Cl)C(=O)NC1CCCCCC1 (centres unmarked) [5-O21, 2-chloro-N-cycloheptylpropanamide]	92.8962
CCN(Cc1cccs1)C(=O)CCl [5-F07, 2-chloro-N-ethyl-N-[(thiophen-2-yl)methyl]acetamide]	81.2386
O=C(CCl)c1cn(-c2ccc(F)cc2)nn1 [10-F05]	0
C=CC(=O)NCc1ccc(C(=O)N2CCNC(=O)CC2)cc1 [3-I04, N-{[4-(5-oxo-1,4-diazepane-1-carbonyl)phenyl]methyl}prop-2-enamide]	99.2599
COc1ccc(NC(=O)C(C#N)=Cc2cccc(Cl)c2Cl)cc1 [8-N04, 2-cyano-3-(2,3-dichlorophenyl)-N-(4-methoxyphenyl)prop-2-enamide]	107.22
Cc1cc(C)cc(OCCN(C)C(=O)CCl)c1 [6-F03, 2-chloro-N-[2-(3,5-dimethylphenoxy)ethyl]-N-methylacetamide]	81.2683
O=C(CCl)Cc1ccc(C(F)(F)F)cc1 [10-C19, 1-chloro-3-[4-(trifluoromethyl)phenyl]propan-2-one]	133.125
C=CC(=O)N1CCN(c2nc(CC)ns2)CC1 [1-J20, 1-[4-(3-ethyl-1,2,4-thiadiazol-5-yl)piperazin-1-yl]prop-2-en-1-one]	122.374
CC(=O)c1cccc(S(=O)(=O)N2CCN(C(=O)CCl)CC2)c1 [4-F05, 1-[4-(3-acetylbenzenesulfonyl)piperazin-1-yl]-2-chloroethan-1-one]	105.574
N#CC(=Cc1cccs1)C(=O)Nc1ccc(C(=O)O)cc1 [8-A04, 4-[2-cyano-3-(thiophen-2-yl)prop-2-enamido]benzoic acid]	109.212
Cc1ccc(CN(Cc2c(C)noc2C)C(=O)CCl)c(C)c1 [5-N03, 2-chloro-N-[(3,5-dimethyl-1,2-oxazol-4-yl)methyl]-N-[(2,4-dimethylphenyl)methyl]acetamide]	78.3242
O=C(CCl)NCCOc1cccc(F)c1 [6-G03, 2-chloro-N-[2-(3-fluorophenoxy)ethyl]acetamide]	89.8049
COc1cccc(NC(=O)C(C#N)=Cc2csnn2)c1 [8-K04, 2-cyano-N-(3-methoxyphenyl)-3-(1,2,3-thiadiazol-4-yl)prop-2-enamide]	135.768
O=C(CCl)NCC1CCCN(C(=O)C(F)(F)F)C1 (centres unmarked) [7-N18, 2-chloro-N-{[1-(2,2,2-trifluoroacetyl)piperidin-3-yl]methyl}acetamide]	107.378
C=CC(=O)NCCC(=O)N1CCN(c2nc(C)cs2)C(C)C1 (centres unmarked) [2-F06, N-{3-[3-methyl-4-(4-methyl-1,3-thiazol-2-yl)piperazin-1-yl]-3-oxopropyl}prop-2-enamide]	102.35
C=CC(=O)N1CCC(C(=O)N[C@H]2CCOc3c(F)cccc32)CC1 [3-F12, N-[(4S)-8-fluoro-3,4-dihydro-2H-1-benzopyran-4-yl]-1-(prop-2-enoyl)piperidine-4-carboxamide]	107.27
C=CC(=O)NCc1cn(C)c2ccccc12 [1-G21, N-[(1-methyl-1H-indol-3-yl)methyl]prop-2-enamide]	106.549
CC(Cl)C(=O)Nc1ccc(NC(=O)c2cccs2)cc1 (centres unmarked) [6-G07, N-[4-(2-chloropropanamido)phenyl]thiophene-2-carboxamide]	112.683
CCCCNC(=O)C(C#N)=Cc1ccncc1 [8-P17, N-butyl-2-cyano-3-(pyridin-4-yl)prop-2-enamide]	94.9378
